Results as given in PubChem BioAssay AID1508642 (National Center for Advancing Translational Sciences (NCATS), 2021).
Out of some 43,000 compounds screened, about 200 (0.47%) were called active. About 12% were inconclusive and are not listed. The call rests on the fitted dose curve; in most records, active means well fitted cell-killing curve with a large enough effect; inconclusive means small, poorly fitted or top-dose-only effect, or effect the other way; inactive means flat fitted curve, though single readings scatter. The list shows a part of the results.

Test: Cell viability qHTS assay in S16 Pmp22-F2sN cells; further: nearly all actives have a fitted effect of over 65% in size
Conditions: S16 Pmp22-F2sN Schwann cells viability, CellTiter-Glo, 24 h; series mostly up to 57.5 µM; activity change, negative = cytotoxicity: at the top concentration
Procedure, shortened: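 Used to flag compounds lowering reporter output through toxicity, this quantitative HTS measures ATP-based CellTiter-Glo luminescence in S16 Pmp22-F2sN Schwann cells after 24 h compound exposure at 37C.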
On the % scale 0 is the no-effect control and ±100 the full control effect.

SMILES | activity change, negative = cytotoxicity
COc1ccc(-c2nc(CS(=O)CC(=O)NCc3ccccc3Cl)c(C)o2)cc1OC (stereo unspecified) | inactive: 9.8%
Cn1c(C(=O)Nc2cccc(Cl)c2)cc2c(=O)n(C)c3ccccc3c21 | inactive: 5.48%
Cc1ccc(CNc2nc3nc(C)c(Cl)c(C)n3n2)cc1 | inactive: -2.79%
Cc1nn(C)c2c1c(C(F)(F)F)cc(=O)n2C(C)C(=O)NCc1ccccc1 (stereo unspecified) | inactive: 17.1%
CCOCCc1nn2c(=O)cc(COC(=O)c3ccc4c(c3)OCO4)nc2s1 | inactive: -2.88%
CC(C)c1nn2c(=O)cc(COC(=O)COc3ccccc3F)nc2s1 | inactive: 18%
CCc1ccccc1NC(=O)CSc1nc2ccccc2nc1Cc1cccc(OC)c1 | inactive: 3.54%
O=C(NCc1ccccc1)c1ccc2c(c1)sc1nc(-c3ccc(F)cc3)cn12 | inactive: 1.34%
COc1cccc(-c2cn3c(n2)sc2cc(C(=O)NCCc4ccccc4)ccc23)c1 | inactive: 2.42%
Cc1ccc(-c2cn3c(n2)sc2cc(C(=O)NC4CCCCCC4)ccc23)c(C)c1 | inactive: 0.552%
Cc1cccc(NC(c2nnc(-c3ccccc3)o2)c2ccc(F)cc2Cl)c1C (stereo unspecified) | inactive: -0.767%
Cc1oc2c(c(C)cc3oc(=O)c(CC(=O)NCCc4ccc(Cl)cc4)c(C)c32)c1C | inactive: 5.31%
Cc1ccc(Cl)cc1N1CCN(C(=O)C2CCN(S(=O)(=O)c3c(C)noc3/C=C/c3ccccc3F)CC2)CC1 | inactive: -4.18%
CCc1ccccc1NC(=O)Cn1c(=O)oc2ccccc21 | inactive: 4.86%
CCOc1ccc(C2CC(=O)c3c([nH]c(C(=O)OC4CCCCCC4)c3C)C2)cc1 (stereo unspecified) | inactive: -3.4%
COc1ccc(C(=O)NCC(c2cccs2)S(=O)(=O)c2cccs2)cc1 (stereo unspecified) | inactive: 1.45%
Cc1ccc(NC(=O)[C@H](Cc2ccccc2)N2Cc3ccccc3C2=O)cc1F | inactive: -5.2%
Cc1ccc(S(=O)(=O)Nc2nc3n(n2)C(c2ccc(Cl)cc2)C=C(c2ccccc2)N3)cc1 (stereo unspecified) | inactive: 0.0671%
O=C(CN1C(=O)CC(c2ccco2)Sc2ccccc21)Nc1ccc(OC(F)(F)F)cc1 (stereo unspecified) | inactive: 11.8%
COc1ccc(S(=O)(=O)N2CCC(Oc3ccc(-n4cnnn4)cc3)CC2)cc1 | inactive: 3.41%
COc1cccc(OC)c1C(=O)NCCc1sc(-c2cccc(F)c2)nc1C | inactive: -4.54%

SMILES | activity change, negative = cytotoxicity
CCCCNC(=O)c1cccc(NC(=O)c2nsc3ccccc23)c1 | inactive: 4.65%
CCOc1ccc2c(c1)c(=O)c(C(=O)c1ccc3c(c1)OCO3)cn2Cc1ccc(F)cc1 | inactive: 0.491%
COc1ccccc1N1CCN(c2ncnc3c2c(-c2ccccc2)cn3-c2cccc(Cl)c2)CC1 | inactive: 13%
CCc1nn(C(CC)C(=O)NCc2ccc(OC)c(OC)c2)c(=O)c2cc3oc(C)cc3n12 (stereo unspecified) | inactive: -24.8%
Cc1nn(-c2nc(-c3ccccc3)cc(C(F)(F)F)n2)c(C)c1Cl | inactive: 7.56%
COc1ccc(C(=O)Nc2ccccc2-c2nc3ccccc3s2)cc1OC | inactive: -0.479%
Cc1ccc(C)c(NC(=O)CSc2nccn2-c2cccc(C)c2C)c1 | inactive: -12.2%
COc1cccc(CNC(=O)c2cnc3c(-c4ccc(F)cc4)c(C)nn3c2C)c1 | inactive: -13.6%
CCc1ccc(C2C(C(=O)Nc3ccccc3OC)=C(C)Nc3c(C(=O)Nc4ccc(C)cc4)cnn32)cc1 (stereo unspecified) | inactive: -4.85%
CCN(C(=O)c1cn(-c2cccc(OC)c2)c(=O)c2ccccc12)c1ccccc1C | inactive: -1.34%
COc1cc2c(cc1OC)C(c1cccc(Cl)c1)CC(=O)N2 (stereo unspecified) | inactive: 6.38%
COc1ccc(OC)c(NC(=O)c2oc(=O)c3ccccc3c2-c2ccccc2)c1 | inactive: -1.93%
O=C(c1ccc(F)cc1)N1CCc2c([nH]c3ccccc23)C1c1ccc(Cl)cc1 (stereo unspecified) | inactive: -7.63%
CCc1ccc(OCCSc2nc3ccccc3n2CC(=O)N2CCCCC2)cc1 | inactive: -17.3%
CCOc1ccc(NCc2cccn2-c2nnc(N3CCC(C(=O)NCc4ccccc4Cl)CC3)s2)cc1 | inactive: -9.12%
CC(C)(C)OC(=O)N1CCC(c2c(C(=O)NCc3cccs3)cnn2-c2cccc(F)c2)CC1 | inactive: -15.2%
COc1ccc(Cl)cc1NC(=O)N1CCN(S(=O)(=O)c2ccc3c(ccn3C)c2)CC1 | inactive: -0.0251%
Clc1ccc(-c2nnn3c2nc(NC2CCCCC2)c2ccccc23)cc1 | inactive: 1.13%
CCOc1ccc(Nc2ncnc3c2c(-c2ccccc2)cn3-c2cccc(C)c2)cc1 | inactive: -0.275%
CCOc1ccc(C(=O)N(Cc2ccc(C(C)C)cc2)Cc2ccco2)cc1 | inactive: -19.3%
COc1cc(NC(=O)c2cccc(Cl)c2Cl)ccc1NC(=O)c1cc2ccccc2o1 | inactive: 16.3%

SMILES | activity change, negative = cytotoxicity
CCS(=O)(=O)N1CCCc2cc(C(=O)Nc3cccc(C(C)=O)c3)ccc21 | inactive: -18.6%
CCC(=O)N1CCc2cc(Br)cc(S(=O)(=O)CCC(=O)Nc3cccc(Cl)c3)c21 | inactive: -5.89%
CCCn1c2ccc(F)cc2c2nnc(SCCN3CCCCC3)nc21 | inactive: -3.38%
CCCc1cnc2c(c1SCC(=O)Nc1ccccc1OCC)c(=O)n(C)c(=O)n2C | inactive: -19.2%
CCCSCCCNC(=O)c1ccc(C)c(NC(=O)c2nsc3ccccc23)c1 | inactive: 9.67%
COc1cccc(Cn2nc(SC)c(S(=O)(=O)c3ccccc3)c2N(C(C)=O)C(C)=O)c1 | inactive: 3.77%
Cc1cc2c(cc1NS(=O)(=O)c1ccc(Br)cc1)n(C)c(=O)c(=O)n2C | inactive: 4.09%
Cc1ccc(NC(=O)CCCc2nc(-c3ccco3)no2)cc1Cl | inactive: 0.276%
COc1ccc(-n2nnnc2C2CCN(S(=O)(=O)c3cccc(C(F)(F)F)c3)CC2)cc1 | inactive: 8.32%
COc1cccc(NC(=O)C(Cc2ccccc2)N2Cc3ccccc3C2=O)c1 (stereo unspecified) | inactive: 3.41%
COc1ccc(-n2c(SCC(=O)NCc3ccc(Cl)cc3)nc3ccsc3c2=O)cc1 | inactive: -2.37%
COc1cccc(-n2c(=O)c3cc(OC)c(OC)cc3n(CC(=O)Nc3ccc(F)cc3)c2=O)c1 | inactive: 13.7%
COc1ccc(-c2noc(CCC(=O)N(C)c3cc(Cl)ccc3OC)n2)cc1 | inactive: 5.21%
CC(C)CCOc1ccc(C(=O)NCC2OCCc3ccccc32)cc1 (stereo unspecified) | inactive: -0.24%
CC(=O)c1ccc(N2CCN(S(=O)(=O)c3cc4[nH]c(=O)c(=O)[nH]c4cc3C)CC2)cc1 | inactive: 5.09%
COc1ccccc1CNC(=O)C(=O)NCC(c1cccs1)S(=O)(=O)c1ccccc1 (stereo unspecified) | inactive: -9.06%
CCc1nnc(NC(=O)c2cc(=O)c3cc(C)ccc3o2)s1 | inactive: 4%
Cc1ccc(C)c(N2CCN(C(=O)Cn3cnc4onc(-c5ccc(F)cc5)c4c3=O)CC2)c1 | inactive: 13.2%
CC(=O)Nc1ccc(/C=C/c2noc(-c3ccccc3O)n2)cc1 | inactive: 1.55%
